# In the RNAGym collection of RNA variant scans (doi:10.1093/nar/gkz1192):
# Read counts are not given, so values of variants with three or more changes are uncertain.
# B1: CPEB3 Ribozyme (parent)
# chain: UAACAGGGGGCCACAGCAGAAGCGUUCACGUCGCAGCCCCUGUCAGAUUCUGGUGAAUCUGCGAAUUCUGCUGUAUAUCUC
# Variants of: B1
# Experiment: self-cleavage, relative activity (ratio to wild type); higher = more cleavage; in vitro, sequencing
# Procedure, shortened: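 CPEB3 self-cleaving ribozyme mutant libraries were made by rounds of error-prone PCR, barcoded, and transcribed in vitro with T7 RNA polymerase for 5 hours at 37°C. Cleavage occurred during transcription and a 15 min DNase I step before EDTA stop. RNAs were reverse transcribed with template switching and Illumina-sequenced, with DNA sequencing mapping barcodes to variants. Relative activity is the variant's cleaved/total read fraction divided by wild type's (minimum 5 reads), averaged across three batches.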
row,Variant,self-cleavage
1,U1A A21G G24U A28G U58G U72C,0.07
2,U1A A5G A20U G53A A77G,0.43
3,U1A A3G U69C U78A,0.76
4,U1A A28G A56G C68U,0.17
5,U1A A35U U58C U76A U80A,0.21
6,U1A A3G A20G U31C U41A U69C,0.12
7,U1A C12U G19U A57U U66C,0.11
8,U1A A20U U43C U72C,0.11
9,U1A A21G A45G A56G A64C,0.2
10,U1A A56G U58C A64U,0.14
11,U1A A13U A18G U69A,0.89
12,U1A A20U A21U U48C A64G,0.1
13,U1A A13U U31C A56G A77U U78C,0.78
14,U1A A2U A20U U43C U48C G55U,0.18
15,U1A A3U A21G U67C U78C,0.26
16,U1A A18C A21G U25C A28G U74C,0.77
17,U1A A2C U25A U41C U67A,0.08
18,U1A A13G U41C A65G,0.26
19,U1A A2G A21G A47G A65G U78A,0.27
20,U1A A3U C23G,0.14
21,U1A C29G U67A,0.08

row,Variant,self-cleavage
1,U1A A5G U43A,0.71
2,U1A A3G C29U A45U A64U,0.13
3,U1A A15G A28G G33A A35G,0.13
4,U1A A13G A21G A28C A65G U80A,0.08
5,U1A A21G A28G U31C U72G A75C,0.03
6,U1A A21G A35G U51A A65G,0.5
7,U1A A15C A18U G33A U80A,0.17
8,U1A A35G G42U U67C U72C,0.08
9,U1A A21G U72C,0.55
10,U1A A20G A35G A56U,0.63
11,U1A A15C A21G U25A U54A U60C U78C,0.08
12,U1A A35U U43C C50A U60C U72A,0.08
13,U1A A13G A45G A47G A56G U60A,0.36
14,U1A A13U G46C A47G U51A A56G,0.07
15,U1A C12U A13G A20G A47G,0.36
16,U1A A35C C40U A45U A56C A75U,0.15
17,U1A A13U U41C A47U U58C U67A,0.21
18,U1A A5U C29U U31C,0.45
19,U1A A18U A21G U31A C39U U72C U76C,0.09
20,U1A A5U G30A C68U U72A U80C,0.12
21,U1A A28C G53U G61U,0.25

row,Variant,self-cleavage
1,U1A A15U C59U U69C U72C U78C,0.12
2,U1A C4A G9C A18G G30A U69C U74C,0.06
3,U1A A21G U41C,0.58
4,U1A A3G C37U U43G A64U,0.48
5,U1A A18G A28C A56G,0.4
6,U1A A13U U26A U31C U41C G46U A56U,0.15
7,U1A C4G A75U,1.25
8,U1A A15G G16U U25C U41C A65G U66C,0.16
9,U1A A28U U69G,0.52
10,U1A A5G C11U A56U U60A A75U,0.12
11,U1A A47G U78C,0.91
12,U1A A20U A77U,0.21
13,U1A A21G C27A U48A U78A,0.09
14,U1A A13G A15G A21G,0.34
15,U1A A5G G9A U41A U69A,0.21
16,U1A A2G A45G A56U U58C U67A,0.19
17,U1A A47G A56G A57G U58C U74C,0.88
18,U1A C11G A20G A28G U31A C39U U49C,0.02
19,U1A C12U U25C A47U G52A U67G U69C,0.05
20,U1A A3U A18G G24A U54C A56G,0
21,U1A A2G A5U A15U U25C U49A U78A,0.13

row,Variant,self-cleavage
1,U1A A20C U51A,0.38
2,U1A A20G U31A U54C U72C,0.38
3,U1A A64G G73A,1.24
4,U1A A5U U41G G46A U54C A57G,0.24
5,U1A A21G U41C U43A U74C,0.5
6,U1A C11U U25C,0.23
7,U1A A18U A35G A56C U69C,0.38
8,U1A A13G G19A C34A A45G U69C U72A,0.06
9,U1A A21U A57G A64G,0.36
10,U1A A13U U66C,0.54
11,U1A A3C C4A A5G A18U G61A U78C,0.17
12,U1A A35G A57G U60C,0.8
13,U1A C11U G16U A18U U66C,0.08
14,U1A A2G A5U,1.01
15,U1A A13C A15G U25A,0.11
16,U1A A35G C50U A64U,0.88
17,U1A A20G A28G U41A,0.08
18,U1A A15G U54A,0.81
19,U1A A28G C39A U54C,0.19
20,U1A A3G A15C A64U,0.31
